In PubChem BioAssay AID1745853 (National Center for Advancing Translational Sciences (NCATS), 2022) one finds activity change, negative = inhibition data, which are given here for 17 molecules.

The list shows a part of the results. Further columns of the screen follow, without active or inactive calls.

Assay in all cases: Primary Screen for Target Class Profiling of Small Molecule Inhibitors of Methyltransferases
Assay [1] deals with Glycine N-methyltransferase (Homo sapiens) (UniProt Q14749). To be noted: purified enzyme, MTase-Glo SAH luminescence; measured here: GNMT inhibition; at 40 µM; stronger effect = lower value. The essentials: (§1)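 Each enzyme was assayed with SAM and its substrate. SAH formation detected by MTase-Glo luminescence; single-point 40 uM screen[…].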
In assay [2] the target is Guanidinoacetate N-methyltransferase (Homo sapiens) (UniProt Q14353). To be noted: purified enzyme, MTase-Glo SAH luminescence; measured here: GAMT inhibition; at 40 µM; stronger effect = lower value. The essentials: as §1
Assay [3] has as its target Histamine N-methyltransferase (Homo sapiens) (UniProt P50135). To be noted: purified enzyme, MTase-Glo SAH luminescence; measured here: HNMT inhibition; at 40 µM; stronger effect = lower value. The essentials: as §1
The target in assay [4] is Nicotinamide N-methyltransferase (Homo sapiens) (UniProt P40261). To be noted: purified enzyme, MTase-Glo SAH luminescence; measured here: NNMT inhibition; at 40 µM; stronger effect = lower value. The essentials: as §1
Assay [5] has as its target Phenylethanolamine N-methyltransferase (Homo sapiens) (UniProt P11086). To be noted: purified enzyme, MTase-Glo SAH luminescence; measured here: PNMT inhibition; at 40 µM; stronger effect = lower value. The essentials:
as §1
On the % scale 0 is the no-effect control and ±100 the full control effect.

On to `CCCn1c(=O)c2cc(Cl)ccc2n2c(=O)n(CC(=O)c3ccc(OC)cc3)nc12`, for which the activity change, negative = inhibition in assay [1] was 2.11%; in assay [2] it was 4.87%; in assay [3], 2.37%; in assay [4], 1.15%; in assay [5], 2.84%.

For `O[C@H]1[C@H](NCc2ccc(F)cc2)[C@H]2CO[C@H](O2)[C@@H]1N1CCC(Cc2ccccc2)CC1`, the activity change, negative = inhibition was -6.56% in assay [1]; -4.63% in assay [2]; -1.71% in assay [3]; -3.71% in assay [4]; 12.2% in assay [5].

With `Cc1cc(C)nc(NS(=O)(=O)c2ccc(NC(=S)NC(=O)COc3ccc(Br)cc3Cl)cc2)n1`, the activity change, negative = inhibition is -17% in assay [1]; 8.64% in assay [2]; 3.18% in assay [3]; -32.3% in assay [4]; -9.77% in assay [5].

`Cc1cnccc1NCCn1ccnc1-c1cc2n(n1)CCCNC2`: the activity change, negative = inhibition was -2.27% in assay [1]; -3.54% in assay [2]; -76.3% in assay [3]; -3.61% in assay [4]; -1.67% in assay [5].

As to `Cc1ccc(NS(=O)(=O)c2cc3c(cc2C)n(C)c(=O)n3C)cc1`, the activity change, negative = inhibition in assay [1] was 9.97%; in assay [2] it was 0%; in assay [3], 6.33%; in assay [4], -4.66%; in assay [5], 2.68%.

For the molecule `CCCNc1ccc2nncn2n1`, the activity change, negative = inhibition in assay [1] was -5.58%; in assay [2], -7.26%; in assay [3] it was -2.48%; in assay [4], -14.6%; in assay [5], 8.79%.

As for `O=C(NCc1ccnc2[nH]ccc12)c1cc(F)ccc1Br`, the activity change, negative = inhibition is -8.54% in assay [1]; -7.97% in assay [2]; -13% in assay [3]; -16.8% in assay [4]; -7.59% in assay [5].

On to `CCc1cc2c(cc3n2CC(C)(C(=O)NC2CCCCC2)N(c2cc(C)cc(C)c2)C3=O)s1` (configuration not stated), for which the activity change, negative = inhibition is -9.46% in assay [1]; -1.78% in assay [2]; -5.14% in assay [3]; 2.26% in assay [4]; -5.64% in assay [5].

As for `CCCn1c(=O)c2cc(F)ccc2n2c(SCC(=O)Nc3ccc(C)cc3C)nnc12`, the activity change, negative = inhibition in assay [1] is -5.28%; in assay [2], 0%; in assay [3] it was -0.288%; in assay [4], 1.38%; in assay [5], 3.99%.

Take `CN1C(=O)c2cc(C(=O)NCc3cccc(Cl)c3)nn2CC1(C)C(=O)NCc1ccc(F)cc1` (configuration not stated): the activity change, negative = inhibition in assay [1] is 3.2%; in assay [2] it was 4.77%; in assay [3] it was 6%; in assay [4], -1.81%; in assay [5], 0.619%.

With `C=C(C(=O)O)C1CC2=C(C)CCCC2(C)C[C@@H]1O` (some centres not stated), the activity change, negative = inhibition in assay [1] was -1.14%; in assay [2] it was 1.3%; in assay [3], 7.17%; in assay [4], -11.6%; in assay [5], 1.48%.

In the case of `COc1ccccc1CNC(=O)C1(C)Cn2cnc(C(=O)NCc3cccc(F)c3)c2C(=O)N1C1CC1` (configuration not stated), the activity change, negative = inhibition worked out at 3.58% in assay [1]; 0% in assay [2]; 2.63% in assay [3]; 3.84% in assay [4]; 0.945% in assay [5].

On to `CNC(=O)c1cc(C2CC2)nc2onc(C3CCN(C(=O)C4CCCCC4)CC3)c12`, for which the activity change, negative = inhibition in assay [1] is -3.74%; in assay [2], 0.045%; in assay [3] it was -0.613%; in assay [4], -6.68%; in assay [5], -4.01%.

With `CNC(=O)[C@@H]1CN(S(=O)(=O)c2cccnc2)C[C@H]1C1CCN(C)CC1`, the activity change, negative = inhibition in assay [1] is 0.296%; in assay [2], -0.539%; in assay [3] it was -4.45%; in assay [4], -0.586%; in assay [5] it was -0.434%.

With `CCC[C@@H]1C[C@@H](C(=O)N[C@H](C(C)Cl)[C@H]2O[C@H](SC)[C@H](O)[C@@H](O)[C@H]2O)N(C)C1` (some centres not stated), the activity change, negative = inhibition in assay [1] was 4.31%; in assay [3], 9.2%.

With `CN1CCC(c2c[nH]c3ccc(NC(=O)c4ccc(F)cc4)cc23)CC1`, the activity change, negative = inhibition in assay [1] is 0.685%; in assay [2], 6.08%; in assay [3], -61%; in assay [4], -8.11%; in assay [5] it was 4.18%.

With `COCCCNc1nc2c(S(=O)(=O)c3ccc(C(C)C)cc3)nnn2c2ccccc12`, the activity change, negative = inhibition in assay [1] was -6.58%; in assay [2], 4.53%; in assay [3], -1.28%; in assay [4] it was -8.6%; in assay [5], -6.83%.
